# ± gives the standard deviation of the averaged measurements. The list shows a part of the results.
# Test system: PfAP2-LT AP2 domain (GST-tagged)
# Assay: gcPBM binding intensity (ln(normalized median fluorescence intensity)); higher = stronger DNA binding
# Procedure, shortened: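 Plasmodium falciparum DNA-binding domains carrying a GST tag were expressed in E. coli and applied for 1 h, at about 25 μg on average, to an Agilent 4 × 180k array. The array held primer-extended double-stranded 36-bp intergenic genomic probes together with negative controls, and binding took place in 1× PBS with 1% milk, 0.2 mg/ml BSA, 0.5% salmon testes DNA and 0.03% Triton X-100. An Alexa488 anti-GST antibody detected bound protein, and the array was scanned at 488 nm. Binding intensity is taken as the highest Masliner-normalised natural-log median intensity across replicate spots of either probe orientation.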
row,Sequence,gcPBM binding intensity (ln)
1,AAAACTATTTGTAAAAGTACATAATAAATAAATAAA [XGTACX_site7922],8.75 ± 0.42
2,GAATGTCTAATTTTGATGCACACTTTTGTGCAATTA [CACACA_site2902],8.79 ± 0.41
3,AAAATTCATATATACACACACGCACATATATATATA [CACACA_site90],9.71 ± 0.21
4,CAAAAAATTCAACACACACACACACCGATAAATAAA [CACACA_site8330],10.11 ± 0.071
5,TTATATTATTCGTGTGTGCACGATATTTCATAATTG [GTGCAC_site9767],9.07 ± 0.31
6,TTTCCTTATAAAAATACACACAAACTTTAATTAAAA [CACACA_site7710],8.48 ± 0.4
7,TATTACACATATTATACACACATATATTATAGATAT [CACACA_site6839],9.12 ± 0.36
8,TTTCTTTTTAAATGCTGTACAAAGGGTGACGTTAAA [XGTACX_site4724],8.43 ± 0.38
9,TATTCCAAATTTACTAGTACATAATCCATCCGATAA [XGTACX_site1558],8.53 ± 0.44
10,AATAGAATGTAATATACACACATATATTTCTCTTTT [CACACA_site2630],8.94 ± 0.43
11,TATATATATATATATTGTACACATTGTGTTTAAATA [XGTACX_site5104],9.24 ± 0.33
12,TTGTAACCTATGCACGCACACAAGAAAAAAACAAAA [CACACA_site3775],9.22 ± 0.46
13,TTTTTATTGTTAATTTTAATTTTTTTTTTTTAATGC [CACACA_negctrl_site162],8.3 ± 0.51
14,ATATTTTTTAGTAAGACGAAATAAATAAATCTTTAT [CACACA_negctrl_site1778],8.17 ± 0.42
15,TTTTCTTTTTTTTTTGTGCACATAATATATAATTAT,8.88 ± 0.52
16,TATATATATATAAGCACACAAACAAAAAAAATTATA [CACACA_site3897],9 ± 0.41
17,ATTGAATATGTAAATGCACACCAAAAAAAAAAAAAA [CACACA_site9189],8.96 ± 0.45
18,TTTTTCCTATTTTTAGTGCACATATAAATAAATAAA [GTGCAC_site9821],8.31 ± 0.45
19,ATTTTTTATATTTAGTGTACATGTTTTAATTTATAA [XGTACX_site7512],8.76 ± 0.43
20,ATAACTTTATTCAGTTTGCACTTTTATAACAAAAGA,8.6 ± 0.43
21,CTTATATAATTCGATAGTACATATTTTTATATATAT [XGTACX_site4045],8.64 ± 0.51
22,TAAACATACCTATACACACACACACGCACACGCACA [CACACA_site6372],10.22 ± 0.042

row,Sequence,gcPBM binding intensity (ln)
1,GTTCCAGGCATTCGTGCGCACAAATAGAAACAATTA [GTGCAC_site9824],9.06 ± 0.56
2,TAAAAATTGCACAGAAGTACAGTATAAATATATATA [XGTACX_site3421],8.74 ± 0.44
3,TTTCTATATTGGCATACATGCAAGAACGAAAAGATT [TGCATGCA_site117],8.64 ± 0.37
4,ATAATATATGAGCAATGTACATATTTCTCATTGCAC [XGTACX_site2253],8.89 ± 0.42
5,CATTCAATTGAAAAATGTACAAAAATAAACATATGC [XGTACX_site1663],8.99 ± 0.44
6,TAAGTATACGCATACACACACACACCCAAAAAAAAA [CACACA_site425],9.91 ± 0.21
7,AATAGGAAGACTATTTTGTATTTGATTTTTTATTCC [GTGCAC_negctrl_site453],8.86 ± 0.49
8,TCTTTTTTTTTTTTTTTTTTTTTTTATTTATTCATA [CACACA_negctrl_site1827],8.48 ± 0.58
9,AAAAGGTATCCACATACGCACACCAAAAAAAAAAAT [CACACA_site347],9.16 ± 0.64
10,ATACAACAATGTGAATTATATATGGATGGAGAATGA [GTGCAC_negctrl_site148],8.98 ± 0.54
11,ACGTAAGCGAATAAAAGTACATATATTAAAAAAAAA [XGTACX_site4458],8.76 ± 0.65
12,TTCTTAAGGAACGAACGTACAGAATAAAAAGTAAAA [XGTACX_site4294],8.66 ± 0.59
13,GTTGAACATATATGCACACACATAAAATAAAAAAAA [CACACA_site2413],9.42 ± 0.44
14,TTGTGAAACATCAAGAAAAAGAAATAATAAAAAGAA [GTGCAC_negctrl_site38],8.64 ± 0.63
15,TTATATTAATATATATGTACATATATTTTTTTTATA [XGTACX_site6981],8.61 ± 0.61
16,ATATATATGTTTTATAGTACACACATAAATGGACAT [XGTACX_site4538],9.06 ± 0.3
17,CTATTATTTTTAAATTGTACTATAACAAAATGTATA [XGTACX_site3916],8.47 ± 0.36
18,TTTATATTTATATAAATATAATATATATGAATTATA [XGTACX_negctrl_site466],8.12 ± 0.4
19,AAATAAATCTATAATACACACAAAAATATAAAATGC [CACACA_site7700],9.21 ± 0.39
20,CTTCAATATATTCTTACACACTTAAAAAAAAAAATA [CACACA_site4287],8.49 ± 0.4
21,TTAGATATGTGTAAGGGTACAAAATACTTTACATTT [XGTACX_site8204],8.71 ± 0.48
22,TTAAGAAATAACAATGCACACATTTAGGTCTTTTAT [CACACA_site3285],8.88 ± 0.43
